{
  "source": "paper doi:10.1101/598201",
  "about": "(bioRxiv, 2019)",
  "biological_target": "the molecule itself",
  "test": "SEC",
  "data": [
    {"protein": "G3BP1-1-168 wild-type (domain or fragment) not shown", "values": [
      {"measurement": "stoichiometry N", "result": 2}
    ]}
  ]
}
